Measurements published in PubChem BioAssay AID2147 (National Center for Advancing Translational Sciences (NCATS), 2009).
Where “and” joins values, the source holds several entries; their conditions need not be identical. Equal values may be shown once. Among all 230,000 compounds or so, about 3,600 (1.6%) were called active. The inconclusive results got no clear call from the source; some entries with a clear call stand among them for comparison. The call rests on the fitted dose curve; in most records, active means well fitted inhibition curve with a large enough effect (not every such curve was filed as active); inconclusive means small, poorly fitted or top-dose-only effect, or another doubt; inactive means no such curve, though single readings can be large or run the other way. A potency beside an inconclusive call is a rough fit, not a confirmed value.

target: Lysine-specific demethylase 4E (Homo sapiens) (UniProt B2RXH2); experiment: qHTS Assay for Inhibitors of Human Jumonji Domain Containing 2E (JMJD2E); conditions: JMJD2E catalytic domain, FDH-coupled NADH fluorescence (FDH is formaldehyde dehydrogenase); series mostly up to 57.1 µM; activity change, negative = inhibition: at the top concentration
Further: nearly all actives have a fitted effect of over 50% in size.
Potency means the concentration at half of the fitted maximal effect; tags describe the fitted curve by direction and shape.
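Wherever activity change, negative = inhibition is given: 0% = wells with enzyme and -100% = buffer wells without enzyme.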

Chain of UniProt B2RXH2 (B2RXH2 whole entry, looked up, the tested form may be a part): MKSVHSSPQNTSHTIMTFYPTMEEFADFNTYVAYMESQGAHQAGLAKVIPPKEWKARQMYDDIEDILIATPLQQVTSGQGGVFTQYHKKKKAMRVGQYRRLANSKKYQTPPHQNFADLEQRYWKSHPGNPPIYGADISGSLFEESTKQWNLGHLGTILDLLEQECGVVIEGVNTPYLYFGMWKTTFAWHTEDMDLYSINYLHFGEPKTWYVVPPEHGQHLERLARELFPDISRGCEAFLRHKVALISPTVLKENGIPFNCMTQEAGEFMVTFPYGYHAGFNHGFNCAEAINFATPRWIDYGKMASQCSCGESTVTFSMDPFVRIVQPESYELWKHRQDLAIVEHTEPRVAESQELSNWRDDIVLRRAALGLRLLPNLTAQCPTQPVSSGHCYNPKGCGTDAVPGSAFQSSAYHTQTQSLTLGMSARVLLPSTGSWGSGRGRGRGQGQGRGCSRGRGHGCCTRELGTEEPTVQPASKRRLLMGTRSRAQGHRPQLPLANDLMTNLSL

Row | SMILES | activity change, negative = inhibition | Potency
1 | Cc1ccc([N+](=O)[O-])cc1NC(=O)C(C)NS(=O)(=O)c1ccc(F)cc1 (stereo not given) | inactive: 3.89% | 
2 | CCn1c(SCC(=O)c2ccc(OC)cc2)nnc1C(C)NC(=O)c1ccc(OC)cc1 (stereo not given) | inactive: -4.55% | 
3 | Clc1cccc(Cl)c1C1=NOC(c2nnc(-c3ccccc3)o2)C1 (stereo not given) | inactive: -1.15% | 
4 | CCCn1c(-c2ccc(OC)cc2)nc2ccccc21 |  | inconclusive: 35.5 µM [inhibitor, single point]
5 | O=C(CSc1nc2c(sc3ccccc32)c(=O)n1CCO)NCc1ccco1 |  | inconclusive: 39.8 µM [inhibitor, single point]
6 | O=C(NCc1ccc(Cl)cc1)c1cccnc1 | inactive: 10.8% | 
7 | O=S(=O)(c1ccc(F)cc1)N1CCN(c2ccccn2)CC1 |  | inconclusive: 39.8 µM [inhibitor, single point]
8 | Fc1ccc(-c2nnn3c2nc(NCc2ccccc2)c2ccccc23)cc1 |  | inconclusive: 3.16 µM [inhibitor, partial curve]
9 | COc1ccc(C2=NC(C(F)(F)F)(C(F)(F)F)c3c(n(C)c(=O)n(C)c3=O)N2)cc1 |  | inconclusive: 35.5 µM [inhibitor, single point]
10 | N#Cc1cc2c(ccc3ccccc32)oc1=O |  | inconclusive: 0.891 µM [inhibitor, full curve]
11 | C/C(=N\NS(=O)(=O)c1ccc(Cl)c([N+](=O)[O-])c1)c1ccc(C)o1 |  | inconclusive: 25.1 µM [inhibitor, single point]
12 | S=c1[nH]c2cc3ccccc3cc2[nH]1 |  | inconclusive: 1.58 µM [inhibitor, full curve] and inconclusive: 22.4 µM [inhibitor, partial curve]
13 | CCN(CCCNC(=O)COc1cc(=O)n(C)c2ccccc12)c1ccccc1 | inactive: -2.44% | 
14 | Cc1ccc(OCC(=O)Nc2ccc(S(=O)(=O)Nc3ccccn3)cc2)c(C)c1 |  | inconclusive: 31.6 µM [inhibitor, single point]
15 | CCCCCCc1cc2cc(-c3nnc(-c4ccccc4OC)o3)c(=O)oc2cc1O |  | inconclusive: 3.98 µM [inhibitor, partial curve]
16 | COc1ccc2[nH]c(=O)c(CN(Cc3nnnn3Cc3ccccc3)CC3CCCO3)cc2c1 (stereo not given) |  | inconclusive: 28.2 µM [inhibitor, partial curve]
17 | COc1ccc(-n2c(=O)c3ccccc3n(CC(=O)NC3CCCC3)c2=O)cc1 | inactive: 1.77% | 
18 | O=C1c2ccccc2C(O)(c2ncc[nH]2)N1CCc1ccccc1 (stereo not given) | inactive: -1.23% | 
19 | CCOc1cc(N2CCOCC2)c(OCC)cc1NC(=O)c1ccccc1C | inactive: 4.19% | 
20 | CN(C)c1ccc(S(=O)(=O)N(C)C)cc1[N+](=O)[O-] |  | inconclusive: 35.5 µM [inhibitor, single point]
21 | NCC(O)CC(=O)O (stereo not given) | inactive: 8.3% | 
22 | Cc1cc(C(=O)CCl)c(C)n1-c1cccc([N+](=O)[O-])c1 | inactive: -29.1% | 
23 | CCc1nc(N)c(C#N)c(-c2ccco2)c1C |  | inconclusive: 39.8 µM [inhibitor, single point]
24 | O=C(/C=C/c1ccc(O)c(O)c1)OCCc1ccccc1 |  | active: 25.1 µM and active: 20 µM
25 | COc1ccc(C(=O)N/N=C(/C)c2ccc(N3CCCCC3)cc2)cc1 | inactive: 0.617% | 

Row | SMILES | activity change, negative = inhibition | Potency
26 | CC1CCN(C2=NC(=O)/C(=C/c3cn(-c4ccccc4)nc3-c3cccc(S(=O)(=O)N(C)C)c3)S2)CC1 |  | inconclusive: 8.91 µM [inhibitor, single point]
27 | O/N=C/c1ccc2ccccc2n1 | inactive: -4.75% | 
28 | CCCCN(CCCC)C(=S)N/N=C/c1c(C)[nH]n(-c2ccccc2)c1=O |  | inconclusive: 39.8 µM [inhibitor, single point]
29 | CCN(Cc1ccccc1)C(=O)COC(=O)c1n[nH]c2ccccc12 |  | inconclusive: 31.6 µM [inhibitor, single point]
30 | Cc1cc(C)nc(N2CCN(C(=O)CCC(=O)Nc3nnc(C(C)C)s3)CC2)n1 |  | inconclusive: 28.2 µM [inhibitor, partial curve]
31 | CC(C)(C)/C(O)=C(/C#N)c1nc2ccccc2[nH]1 |  | inconclusive: 39.8 µM [inhibitor, single point]
32 | COc1ccccc1CNC(=O)c1c(O)c2cc(OC)c(OC)cc2[nH]c1=O |  | active: 3.55 µM
33 | COc1ccc(N(CC(=O)O)S(=O)(=O)c2ccc(C)cc2)cc1Cl | inactive: -9.61% | 
34 | O=C(OCC(=O)N1CCOCC1)c1ccccc1Cc1ccccc1 |  | inconclusive: 35.5 µM [inhibitor, single point]
35 | O=C(CCc1ccc(Oc2cc([N+](=O)[O-])cc([N+](=O)[O-])c2)cc1)NC1CCCC1 | inactive: -3.1% | 
36 | COc1ccc(-c2ccnc(SCC(=O)Nc3ccccn3)n2)cc1 |  | inconclusive: 31.6 µM [inhibitor, partial curve]
37 | CCOC(=O)c1c(C)n(C)c2cc(-c3ccc(C)cc3)c(O)cc12 |  | inconclusive: 39.8 µM [inhibitor, single point]
38 | Cc1nc(Nc2ccc3c(c2)OCCO3)c2oc3ccccc3c2n1 |  | inconclusive: 39.8 µM [inhibitor, single point]
39 | C/C(=N\Nc1ccc(F)cc1)c1ccncc1 |  | inconclusive: 39.8 µM [inhibitor, single point]
40 | CCOC(=O)N1CCN(S(=O)(=O)c2cc(Br)cnc2N)CC1 |  | inconclusive: 39.8 µM [inhibitor, single point]
41 | COc1ccc(C2=Nn3c(nnc3-c3ccncc3)SC2)cc1OC | inactive: -9.57% | 
42 | COc1cccc2c1OCC1COc3c(c(=O)n(C)c(=O)n3C)C21 (stereo not given) |  | inconclusive: 39.8 µM [inhibitor, single point]
43 | CCCCc1c(O)c2ccccc2n(CCCC)c1=O |  | inconclusive: 22.4 µM [inhibitor, partial curve]
44 | CCn1c2ccccc2c2cc(NC(=O)C(=O)N3CCOCC3)ccc21 |  | inconclusive: 7.94 µM [inhibitor, partial curve]
45 | Cc1nnc(SCC(=O)Nc2sc3c(c2C#N)CCCCC3)n1N | inactive: -4.65% | 
46 | Cc1cc(C(=O)N/N=C/c2ccc(N(C)C)cc2)c2ccccc2n1 | inactive: 1.47% | 
47 | COCCNC(=S)Nc1ccc2nsnc2c1 |  | inconclusive: 39.8 µM [inhibitor, single point]
48 | Cc1ccc(NCc2cccnc2)c(Br)c1 |  | inconclusive: 39.8 µM [inhibitor, single point]
49 | CNC(=O)CS(=O)CC(=O)Nc1cc(OCCOC)c(Cl)cc1Cl (stereo not given) | inactive: 6.65% | 
50 | S=C(NCc1ccccn1)Nc1ccc(Cl)c(Cl)c1 | inactive: 4.06% | 

Row | SMILES | activity change, negative = inhibition | Potency
51 | COC(=O)C1=C(O)/C(=C\c2cc(C)n(-c3ccccc3C)c2C)N=C1C |  | inconclusive: 39.8 µM [inhibitor, single point]
52 | COc1ccc(C(=O)Nc2ccc(S(=O)(=O)NCc3ccco3)cc2)cc1OC |  | inconclusive: 39.8 µM [inhibitor, single point]
53 | CC(C)CNC(=O)c1cc([N+](=O)[O-])ccc1N1CCCCC1 | inactive: 8.34% | 
54 | Oc1c(/C=C/C=C/C=Nc2ccccc2)sc(=S)n1Cc1ccccc1 |  | inconclusive: 2.82 µM [inhibitor, full curve]
55 | O=C(Nc1nc(-c2cc3ccccc3oc2=O)cs1)c1ccco1 |  | inconclusive: 14.1 µM [inhibitor, partial curve]
56 | O=C(c1cccs1)N(Cc1ccco1)c1nc(-c2ccc(F)cc2)cs1 |  | inconclusive: 39.8 µM [inhibitor, single point]
57 | NNc1nncc2ccccc12 |  | active: 20 µM
58 | CC(=O)OCC(CCn1cnc2cnc(N)nc21)COC(C)=O |  | inconclusive: 28.2 µM [inhibitor, partial curve] and inconclusive: 31.6 µM [inhibitor, partial curve]
59 | CCOc1cccc(C(=O)NC(=S)Nc2ccccc2)c1 | inactive: -13.1% | 
60 | Cc1ccc2oc(-c3ccc(NC(=O)c4cccnc4)cc3)nc2c1 |  | inconclusive: 28.2 µM [inhibitor, single point]
61 | O=C(Nc1ccccc1)Nc1ccccc1C(=O)NCC1CC1 |  | inconclusive: 39.8 µM [inhibitor, single point]
62 | COc1ccc2[nH]c(=O)c(C(c3nnnn3C3CCCC3)N3CCN(Cc4ccc5c(c4)OCO5)CC3)cc2c1 (stereo not given) |  | inconclusive: 28.2 µM [inhibitor, partial curve]
63 | COc1ccc(C)c2sc(NNC(=O)COc3ccccc3)nc12 | inactive: -9.67% | 
64 | Cc1ccc(N/N=C(\C#N)C(N)=S)cc1C |  | inconclusive: 25.1 µM [inhibitor, single point]
65 | COCc1cc(=O)[nH]c(/N=C(\N)Nc2c(F)cccc2F)n1 | inactive: 1.58% | 
66 | COC(=O)C1=NN(N=O)C2(CC(=O)N(c3cc(C)cc(C)c3)C2=O)C1 (stereo not given) | inactive: 5.71% | 
67 | CCOc1ccc(N2C(=O)CC(Sc3n[nH]c(-c4ccccc4)n3)C2=O)cc1 (stereo not given) | inactive: -20.8% | 
68 | CCCCn1c(=O)n(Cc2cccc(F)c2)c(=O)c2c1ncn2Cc1ccco1 | inactive: -0.141% | 
69 | CSc1ccc(-c2ccco2)nn1 |  | inconclusive: 31.6 µM [inhibitor, single point]
70 | CCC(C)NC(=O)C1CCCN1S(=O)(=O)c1ccc(Cl)cc1 (stereo not given) | inactive: -2.5% | 
71 | COC(=O)c1ccccc1NC(=O)C1CCCO1 (stereo not given) |  | inconclusive: 25.1 µM [inhibitor, single point]
72 | O=C(NCC(F)(F)F)Nc1cccnc1 | inactive: 1.06% | 
73 | CCCCn1c(=O)[nH]c(=O)c2c1nc(-c1ccsc1)n2Cc1ccccc1 |  | inconclusive: 39.8 µM [inhibitor, single point]
74 | O=C(Nc1ccccc1)c1cc(N2CCOCC2)nc2ccccc12 |  | inconclusive: 25.1 µM [inhibitor, single point]
75 | CCCCOc1ccc(-c2ncc(C(=O)O)c(C)n2)cc1 |  | inconclusive: 39.8 µM [inhibitor, single point]
